Measurements reported in article PMC12136788.
The other results are listed elsewhere or left out.

T1: UNK ZnF1-6 (called full-length) (human, UniProt Q9C0B0 30-357)
T1 sequence: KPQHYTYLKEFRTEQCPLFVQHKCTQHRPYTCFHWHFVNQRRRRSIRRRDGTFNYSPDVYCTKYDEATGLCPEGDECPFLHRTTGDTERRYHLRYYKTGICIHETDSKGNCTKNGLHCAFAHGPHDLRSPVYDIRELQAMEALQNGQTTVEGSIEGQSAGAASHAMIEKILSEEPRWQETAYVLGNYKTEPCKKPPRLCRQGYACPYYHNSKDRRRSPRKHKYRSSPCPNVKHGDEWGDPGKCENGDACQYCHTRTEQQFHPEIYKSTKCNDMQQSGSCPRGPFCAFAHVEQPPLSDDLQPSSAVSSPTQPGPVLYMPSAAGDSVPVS

B1: chr4:168926953:168927063:+|3pUTR|ENSG00000129116|msi1_unk|total|mutant (ssRNA)
RNA: GGGAGUUCUACAGUCCGACGAUCCAAAAGAGUUUUCUAACAAGGUUAAUACCUCCGUUCUUAACAUUUUUUUUCUUUAUGUGCCGUGUUUUCAUGCUACCUUGGCCGGAAACUUAUUUACAAACCAUAUUAAAAGGCUAAUUUCAACAGAGGAUUGAGCAUCA
B2: chr10:104140841:104141001:-|CDS|ENSG00000197748|control|control|control (ssRNA)
RNA: GGGAGUUCUACAGUCCGACGAUCGAAUUUGACAAUCCAAAUUCUUCUUAAACAAGGACAAGUAGAACUGGAAAAUUUCCAGCUAGUACUGGAGUAUUCUGAUGCAAUUCUCAUCAACAAGAACAUAAUUGAAGACUUGAAUUCCAACAGAGGAUUGAGCAUCA
B3: chr20:37241422:37241523:+|3pUTR|ENSG00000118705|msi1_unk|total|mutant (ssRNA)
RNA: GGGAGUUCUACAGUCCGACGAUCGUAUGAGAAGAAAAAUGGAAAAAAAAAACUUUAUUUAAAAAAGAAAAAAGUCCAGAUUGCCGUUAUACUUUUGCUUGUUUUUCAGUUUCCCCAACACACAGCAGAUACCUGGUGAGCUCACAACAGAGGAUUGAGCAUCA
B4: chr11:14877439:14878297:-|three_prime_utr|ENSG00000186104|control|control|control (ssRNA)
RNA: GGGAGUUCUACAGUCCGACGAUCAAUGUUCUUGUUUUUUACAGCAUUGCUUCAGAGGUUUCAUUUGCAUUUUCCACAUGAACUAGUUCCAGAUCUGAAGCCCAGGUUAGGCAUGACAUUGCAGCCCCAACCCUACCUCAUCUGCAACAGAGGAUUGAGCAUCA
B5: chr8:43200960:43201061:+|3pUTR|ENSG00000165102|unk|total|mutant (ssRNA)
RNA: GGGAGUUCUACAGUCCGACGAUCCAAAUUCUAAGUGUUUUCUCUUCCGGUUUCCCUGGCUUUGUGAAUGGAUCAUGUGUCUCCCGGUAUAAACCUGACAUCAUCUUUCCACCCGGCUUACCUCCACCAGAUCUCCCCAGUUCUCAACAGAGGAUUGAGCAUCA
B6: chr7:158693335:158693439:-|CDS|ENSG00000146918|unk|total|mutant (ssRNA)
RNA: GGGAGUUCUACAGUCCGACGAUCAAGGAAACAGAAAGAAGAAUUAUGGCAAAGGCUGAAGAAUUUAUUGACAGAUGUGUUGUCCGAAAGCCCAGUGGAUGGGUGGCAGGCCGUGGAAGCCCAGGGUGAAGACAAUAUGGAAACCAACAGAGGAUUGAGCAUCA

Molecular target: T1, UNK ZnF1-6 (called full-length)
Assay: nsRBNS (natural sequence RNA bind-n-seq); RBNS binding buffer (assumed for nsRBNS): 25 mM Tris pH 7.5, 150 mM KCl, 3 mM MgCl2, 0.01% Triton X-100, 500 ug/ml BSA, 20 U/ml SUPERase-In, 4 C; UNK is unkempt and MSI1 is Musashi-1; names of the RNAs are library labels; protein concentration not given here; high values mean tight binding

Binder | binding signal [enrichment R]
B1 | 1.12
B2 | 0.28
B3 | 0.523
B4 | 0.648
B5 | 0.706
B6 | 1
